B1: UGCAUGA (DNA:RNA)
RNA: GGGAGACCGGAAUUCAGAUUGUCCUGCAUGAUUAAAUCCCGUCGUAGCCACCA
DNA 1: CAATCTGAATTCCGGTCTCCC
DNA 2: TGGTGGCTACGACGGGATT
B2: AAGACAU (DNA:RNA)
RNA: B1 RNA with U25A, G26A, C27G, U29C, G30A, A31U
DNA 1: CAATCTGAATTCCGGTCTCCC
DNA 2: TGGTGGCTACGACGGGATT
B3: ACGAUUU (DNA:RNA)
RNA: B1 RNA with U25A, G26C, C27G, G30U, A31U
DNA 1: CAATCTGAATTCCGGTCTCCC
DNA 2: TGGTGGCTACGACGGGATT
B4: GCACUCG (DNA:RNA)
RNA: B1 RNA with U25G, G26C, C27A, A28C, G30C, A31G
DNA 1: CAATCTGAATTCCGGTCTCCC
DNA 2: TGGTGGCTACGACGGGATT
B5: CUAUUCA (DNA:RNA)
RNA: B1 RNA with U25C, G26U, C27A, A28U, G30C
DNA 1: CAATCTGAATTCCGGTCTCCC
DNA 2: TGGTGGCTACGACGGGATT
B6: UGCGCAG (DNA:RNA)
RNA: B1 RNA with A28G, U29C, G30A, A31G
DNA 1: CAATCTGAATTCCGGTCTCCC
DNA 2: TGGTGGCTACGACGGGATT
B7: CGGAUUG (DNA:RNA)
RNA: B1 RNA with U25C, C27G, G30U, A31G
DNA 1: CAATCTGAATTCCGGTCTCCC
DNA 2: TGGTGGCTACGACGGGATT
B8: ACGCCAC (DNA:RNA)
RNA: GGGAGACCGGAAUUCAGAUUGUCCACGCCACUUAAAUCCCGUCGUAGCCACCA
DNA 1: CAATCTGAATTCCGGTCTCCC
DNA 2: TGGTGGCTACGACGGGATT
B9: AUCCGUG (DNA:RNA)
RNA: B8 RNA with C26U, G27C, C29G, A30U, C31G
DNA 1: CAATCTGAATTCCGGTCTCCC
DNA 2: TGGTGGCTACGACGGGATT
B10: UGCUAAU (DNA:RNA)
RNA: B1 RNA with A28U, U29A, G30A, A31U
DNA 1: CAATCTGAATTCCGGTCTCCC
DNA 2: TGGTGGCTACGACGGGATT
B11: GCUUCGG (DNA:RNA)
RNA: B8 RNA with A25G, G27U, C28U, A30G, C31G
DNA 1: CAATCTGAATTCCGGTCTCCC
DNA 2: TGGTGGCTACGACGGGATT
B12: AAAACGC (DNA:RNA)
RNA: B8 RNA with C26A, G27A, C28A, A30G
DNA 1: CAATCTGAATTCCGGTCTCCC
DNA 2: TGGTGGCTACGACGGGATT
B13: GUCGGGU (DNA:RNA)
RNA: B1 RNA with U25G, G26U, A28G, U29G, A31U
DNA 1: CAATCTGAATTCCGGTCTCCC
DNA 2: TGGTGGCTACGACGGGATT
B14: GCAUCUU (DNA:RNA)
RNA: B8 RNA with A25G, G27A, C28U, A30U, C31U
DNA 1: CAATCTGAATTCCGGTCTCCC
DNA 2: TGGTGGCTACGACGGGATT
B15: UACUAGA (DNA:RNA)
RNA: B1 RNA with G26A, A28U, U29A
DNA 1: CAATCTGAATTCCGGTCTCCC
DNA 2: TGGTGGCTACGACGGGATT
B16: UAACUAC (DNA:RNA)
RNA: B8 RNA with A25U, C26A, G27A, C29U
DNA 1: CAATCTGAATTCCGGTCTCCC
DNA 2: TGGTGGCTACGACGGGATT
B17: CCAAGUC (DNA:RNA)
RNA: B8 RNA with A25C, G27A, C28A, C29G, A30U
DNA 1: CAATCTGAATTCCGGTCTCCC
DNA 2: TGGTGGCTACGACGGGATT
B18: ACCCCGU (DNA:RNA)
RNA: B8 RNA with G27C, A30G, C31U
DNA 1: CAATCTGAATTCCGGTCTCCC
DNA 2: TGGTGGCTACGACGGGATT
B19: UGGGGCC (DNA:RNA)
RNA: B8 RNA with A25U, C26G, C28G, C29G, A30C
DNA 1: CAATCTGAATTCCGGTCTCCC
DNA 2: TGGTGGCTACGACGGGATT
B20: CAGGUGA (DNA:RNA)
RNA: B1 RNA with U25C, G26A, C27G, A28G
DNA 1: CAATCTGAATTCCGGTCTCCC
DNA 2: TGGTGGCTACGACGGGATT
B21: CUAUGCG (DNA:RNA)
RNA: GGGAGACCGGAAUUCAGAUUGUCCCUAUGCGUUAAAUCCCGUCGUAGCCACCA
DNA 1: CAATCTGAATTCCGGTCTCCC
DNA 2: TGGTGGCTACGACGGGATT
B22: AUCAAGG (DNA:RNA)
RNA: B1 RNA with U25A, G26U, U29A, A31G
DNA 1: CAATCTGAATTCCGGTCTCCC
DNA 2: TGGTGGCTACGACGGGATT
B23: GAGGAGC (DNA:RNA)
RNA: B8 RNA with A25G, C26A, C28G, C29A, A30G
DNA 1: CAATCTGAATTCCGGTCTCCC
DNA 2: TGGTGGCTACGACGGGATT
B24: GCAUUGA (DNA:RNA)
RNA: B1 RNA with U25G, G26C, C27A, A28U
DNA 1: CAATCTGAATTCCGGTCTCCC
DNA 2: TGGTGGCTACGACGGGATT
B25: GGCCGUC (DNA:RNA)
RNA: B8 RNA with A25G, C26G, G27C, C29G, A30U
DNA 1: CAATCTGAATTCCGGTCTCCC
DNA 2: TGGTGGCTACGACGGGATT
B26: UUUCGUU (DNA:RNA)
RNA: B21 RNA with C25U, A27U, U28C, C30U, G31U
DNA 1: CAATCTGAATTCCGGTCTCCC
DNA 2: TGGTGGCTACGACGGGATT
B27: UCUUGUU (DNA:RNA)
RNA: B21 RNA with C25U, U26C, A27U, C30U, G31U
DNA 1: CAATCTGAATTCCGGTCTCCC
DNA 2: TGGTGGCTACGACGGGATT
B28: GGCUGCC (DNA:RNA)
RNA: B21 RNA with C25G, U26G, A27C, G31C
DNA 1: CAATCTGAATTCCGGTCTCCC
DNA 2: TGGTGGCTACGACGGGATT
B29: CCCAAGC (DNA:RNA)
RNA: B1 RNA with U25C, G26C, U29A, A31C
DNA 1: CAATCTGAATTCCGGTCTCCC
DNA 2: TGGTGGCTACGACGGGATT
B30: GAUGUGU (DNA:RNA)
RNA: B1 RNA with U25G, G26A, C27U, A28G, A31U
DNA 1: CAATCTGAATTCCGGTCTCCC
DNA 2: TGGTGGCTACGACGGGATT
B31: AACGACU (DNA:RNA)
RNA: B8 RNA with C26A, G27C, C28G, C29A, A30C, C31U
DNA 1: CAATCTGAATTCCGGTCTCCC
DNA 2: TGGTGGCTACGACGGGATT

Changes are numbered by the printed parent chain; changes in the protein carry UniProt numbers. Some of the results follow.

The assay has as its target T1, RBFOX1 RRM (Homo sapiens, UniProt Q9NWB1 109-208).
T1 sequence: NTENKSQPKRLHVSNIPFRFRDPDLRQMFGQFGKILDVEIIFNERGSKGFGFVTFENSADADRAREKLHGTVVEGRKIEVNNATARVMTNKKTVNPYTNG
Nature of the assay: EMSA; HiTS-Eq, 1 nM pool, 10 min; buffer printed only for the single-RNA assays: 10 mM Tris pH 7.5, 150 mM NaCl, 3.4 mM EDTA, 0.001% NP-40, 30 C. The conditions noted are these: tags: His6 N-terminal (pET28a); label: 5' 32P. In outline:
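A pool of RNA with 7 randomized nucleotides, 5′-radiolabelled and with DNA-annealed flanks, was equilibrated at 1 nM for 10 min in 50 µL with purified RbFox RRM, wild type or mutant, across increasing protein concentrations. Free RNA was separated by 8% native PAGE, excised, reverse-transcribed, barcoded by PCR and sequenced. Relative association constants were obtained from read-count changes of each RNA species versus the control reaction and normalised to the cognate motif.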
A general note: A gel shift assay detects complexes by their altered migration in electrophoresis.
Regarding B1, the binding signal was 0.913 KA relative to UGCAUGU. Regarding B2, the binding signal is 0.00258 KA relative to UGCAUGU. With B3 the figure was 0.00364 KA relative to UGCAUGU; with B4, 0.0122 KA relative to UGCAUGU; with B5, 0.00615 KA relative to UGCAUGU. With B6 the figure was 0.0191 KA relative to UGCAUGU. B7: the binding signal is 0.0329 KA relative to UGCAUGU. Take B8: the binding signal was 0.0026 KA relative to UGCAUGU. Take B9: the binding signal was 0.00685 KA relative to UGCAUGU. As to B10, the binding signal was 0.012 KA relative to UGCAUGU. For B11, the binding signal was 0.0114 KA relative to UGCAUGU. B12: the binding signal is 0.00119 KA relative to UGCAUGU. With B13 the figure was 0.0137 KA relative to UGCAUGU; with B14, 0.0116 KA relative to UGCAUGU. For the molecule B15, the binding signal was 0.0112 KA relative to UGCAUGU. In the case of B16, the binding signal was 0.00615 KA relative to UGCAUGU. With B17 the figure was 0.00391 KA relative to UGCAUGU; with B18, 0.00267 KA relative to UGCAUGU.

For the molecule B19, the binding signal was 0.0345 KA relative to UGCAUGU.

With B20, the binding signal was 0.0121 KA relative to UGCAUGU. With B21 the figure was 0.0112 KA relative to UGCAUGU; with B22, 0.00691 KA relative to UGCAUGU. For B23, the binding signal was 0.0119 KA relative to UGCAUGU.

B24: the binding signal was 0.0124 KA relative to UGCAUGU. In the case of B25, the binding signal is 0.00869 KA relative to UGCAUGU. Consider B26, for which the binding signal was 0.015 KA relative to UGCAUGU. Under B27 stands 0.0179 KA relative to UGCAUGU; under B28, 0.012 KA relative to UGCAUGU; under B29, 0.00384 KA relative to UGCAUGU.

With B30, the binding signal is 0.018 KA relative to UGCAUGU. With B31, the binding signal was 0.00509 KA relative to UGCAUGU.

The values are drawn from publication PMC9911399, “Two distinct binding modes provide the RNA-binding protein RbFox with extraordinary sequence specificity”.
